Source: the supplement of paper PMC12355420
Where a name gives a salt, the structure may show the parent alone. The list shows a part of the results. Rule as the data show it: active = 0.5 or less and inactive = the rest. Single values are uncertain, as repeats are few or missing.

These compounds were tested on HeLa VPS33A reporter cells (assay: relative cell viability (CellMask signal) vs DMSO (fraction of DMSO); higher = less cytotoxic). Details: 50 µM; 24 h.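 Also: primary screen of an FDA-approved drug library in HeLa reporter cells in 96-well format, CellMask signal normalized to DMSO-treated wells set as 1, under 0.5 deemed highly cytotoxic.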

| SMILES | relative cell viability |
| --- | --- |
| COc1cc2nc(N(C)CCCNC(=O)C3CCCO3)nc(N)c2cc1OC (centres undefined) [Alfuzosin HCl] | 0.972 |
| CN(CCOc1ccc(NS(C)(=O)=O)cc1)CCc1ccc(NS(C)(=O)=O)cc1 [Dofetilide] | 1.07 |
| CN(C(=O)c1ccc(F)cc1C(F)(F)F)C1CCN(c2nnc(-c3ccnn3C)c3ccccc23)CC1 | 1.3 |
| C[C@@H]1C[C@H]2[C@@H]3CCC4=CC(=O)C=C[C@]4(C)[C@@]3(Cl)[C@@H](O)C[C@]2(C)[C@@]1(OC(=O)c1ccco1)C(=O)CCl [Mometasone furoate] | 0.886 |
| CC1(C)S[C@@H]2[C@H](NC(=O)Cc3ccccc3)C(=O)N2[C@H]1C(=O)O [Penicillin G Sodium] | 1.11 |
| O=C(O[C@@H]1Cc2c(O)cc(O)cc2O[C@@H]1c1ccc(O)c(O)c1)c1cc(O)c(O)c(O)c1 [(-)-epicatechin gallate] | 1.1 |
| CC(=O)O[C@H]1C[C@@]2(C)[C@@H](C[C@@H](O)[C@H]3[C@@]4(C)CC[C@@H](O)[C@@H](C)[C@@H]4CC[C@@]32C)/C1=C(\CCC=C(C)C)C(=O)O [Fusidic Acid (sodium salt)] | 1.03 |
| CC(=O)NO [Acetohydroxamic Acid] | 1.13 |
| CC[C@H](C)C(=O)O[C@H]1C[C@H](O)C=C2C=C[C@H](C)[C@H](CC[C@@H](O)C[C@@H](O)CC(=O)O)[C@H]21 [Pravastatin sodium] | 1.05 |
| COc1ccc([C@@H]2Sc3ccccc3N(CCN(C)C)C(=O)[C@@H]2OC(C)=O)cc1 [Diltiazem HCl] | 0.96 |
| O=C(O)P(=O)(O)O [Foscarnet Sodium] | 1.07 |
| CC(C(=O)O)c1ccc2c(c1)[nH]c1ccc(Cl)cc12 (centres undefined) [Carprofen] | 1.03 |
| Cc1c(Nc2ncccc2C(=O)O)cccc1C(F)(F)F [Flunixin Meglumin] | 1.19 |
| CC(C)(C)C(=O)C(Oc1ccc(Cl)cc1)n1ccnc1 (centres undefined) [Climbazole] | 0.837 |
| CN(C)CCCN1c2ccccc2Sc2ccc(Cl)cc21 [Chlorpromazine HCl] | 0.701 |
| Cc1ccsc1C(=CCCN1CCC[C@@H](C(=O)O)C1)c1sccc1C [Tiagabine hydrochloride] | 0.989 |
| Nc1ncnc2c1ncn2[C@@H]1O[C@H](COP(=O)(O)OP(=O)(O)O)[C@@H](O)[C@H]1O [Adenosine-5'-diphosphate] | 1.26 |
| CC1CNc2c(cccc2S(=O)(=O)N[C@@H](CCCNC(=N)N)C(=O)N2CC[C@@H](C)C[C@@H]2C(=O)O)C1 (some centres undefined) [Argatroban] | 1.38 |
| Nc1nc2n[nH]nc2c(=O)[nH]1 [Azaguanine-8] | 0.773 |
| C#Cc1cccc(Nc2ncnc3cc(OCCOC)c(OCCOC)cc23)c1 [Erlotinib] | 1.31 |
| CCCCOc1cc(C(=O)OCCN(CC)CC)ccc1N [Oxybuprocaine HCl] | 0.882 |
| Nc1[nH]cnc2ncnc1-2 [Adenine] | 0.863 |
| NC1=NCC2c3ccccc3Cc3ccccc3N12 (centres undefined) [Epinastine HCl] | 0.915 |
| C[N+]1(C)[C@@H]2C[C@@H](OC(=O)C(O)(c3cccs3)c3cccs3)C[C@H]1[C@@H]1O[C@@H]12 [Tiotropium Bromide] | 1.06 |
| O=C(O)/C=C/c1ccc(Cn2ccnc2)cc1 [Ozagrel HCl] | 0.952 |

These compounds were tested on HeLa VPS33A R498W KI + HA-SDC1-FLAG (assay: relative GAG core protein HA-SDC1 amount per cell number vs DMSO (fraction of DMSO); HeLa model of a glycosaminoglycan (GAG) storage disease; KI is knock-in and KO knock-out; SDC1 is syndecan 1; higher = more SDC1 (GAG core protein)). Details: 50 µM; 24 h.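 Also: HA-SDC1 level read out by In-Cell Western staining with an anti-HA antibody against the N-terminal tag, screening FDA-approved library drugs.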

| SMILES | relative GAG core protein HA-SDC1 amount per cell number |
| --- | --- |
| C/C(=C\C(=O)OCCCCCCCCC(=O)O)C[C@@H]1OC[C@H](C[C@@H]2O[C@H]2[C@@H](C)[C@H](C)O)[C@@H](O)[C@H]1O [Mupirocin] | inactive: 0.678 |
| CC(C)C(=O)c1c(C(C)C)nn2ccccc12 [Ibudilast] | inactive: 0.669 |
| Cc1ncc([N+](=O)[O-])n1CC(C)O (centres undefined) [Secnidazole] | inactive: 0.806 |
| Clc1ccccc1CN1CCc2sccc2C1 [Ticlopidine HCl] | inactive: 0.822 |
| O=C1OC2(c3ccc(O)cc3Oc3cc(O)ccc32)c2ccccc21 [Fluorescein] | inactive: 1.06 |
| OC(Cn1cncn1)(Cn1cncn1)c1ccc(F)cc1F [Fluconazole] | inactive: 0.802 |
| CS(=O)(=O)OCCCCOS(C)(=O)=O [Busulfan] | inactive: 1.68 |
| OC(CCN1CCCCC1)(c1ccccc1)C1CC2C=CC1C2 (centres undefined) [Biperiden HCl] | inactive: 0.514 |
| NCCCC(O)(P(=O)(O)O)P(=O)(O)O [Alendronate] | inactive: 0.925 |
| C[n+]1cccc(C(=O)[O-])c1 [Trigonelline Hydrochloride] | inactive: 0.885 |
| CCc1cc(/C(C)=N/OCc2ccc(C3CCCCC3)c(C(F)(F)F)c2)ccc1CN1CC(C(=O)O)C1 [BAF312 (Siponimod)] | inactive: 0.739 |
| C[C@H]1O[C@@H](n2cc(F)c(=O)[nH]c2=O)[C@H](O)[C@@H]1O [Doxifluridine] | inactive: 0.763 |
| Cc1c(O)cccc1C(=O)N[C@@H](CSc1ccccc1)[C@H](O)CN1C[C@H]2CCCC[C@H]2C[C@H]1C(=O)NC(C)(C)C [Nelfinavir] | inactive: 1.55 |
| CC(=O)O[C@]1(C(C)=O)CC[C@H]2[C@@H]3CCC4=CC(=O)CCC4=C3[C@@H](c3ccc(N(C)C)cc3)C[C@@]21C [Ulipristal acetate] | active: 0.293 |
| COc1cc2nc(N(C)CCCNC(=O)C3CCCO3)nc(N)c2cc1OC (centres undefined) [Alfuzosin HCl] | inactive: 1.29 |
| CN(CCOc1ccc(NS(C)(=O)=O)cc1)CCc1ccc(NS(C)(=O)=O)cc1 [Dofetilide] | inactive: 1.03 |
| CN(C(=O)c1ccc(F)cc1C(F)(F)F)C1CCN(c2nnc(-c3ccnn3C)c3ccccc23)CC1 | inactive: 0.54 |
| C[C@@H]1C[C@H]2[C@@H]3CCC4=CC(=O)C=C[C@]4(C)[C@@]3(Cl)[C@@H](O)C[C@]2(C)[C@@]1(OC(=O)c1ccco1)C(=O)CCl [Mometasone furoate] | active: 0.473 |
| CC1(C)S[C@@H]2[C@H](NC(=O)Cc3ccccc3)C(=O)N2[C@H]1C(=O)O [Penicillin G Sodium] | inactive: 1.15 |
| O=C(O[C@@H]1Cc2c(O)cc(O)cc2O[C@@H]1c1ccc(O)c(O)c1)c1cc(O)c(O)c(O)c1 [(-)-epicatechin gallate] | inactive: 1.09 |

| SMILES | relative GAG core protein HA-SDC1 amount per cell number |
| --- | --- |
| CC(=O)O[C@H]1C[C@@]2(C)[C@@H](C[C@@H](O)[C@H]3[C@@]4(C)CC[C@@H](O)[C@@H](C)[C@@H]4CC[C@@]32C)/C1=C(\CCC=C(C)C)C(=O)O [Fusidic Acid (sodium salt)] | inactive: 0.799 |
| CC(=O)NO [Acetohydroxamic Acid] | inactive: 0.863 |
| CC[C@H](C)C(=O)O[C@H]1C[C@H](O)C=C2C=C[C@H](C)[C@H](CC[C@@H](O)C[C@@H](O)CC(=O)O)[C@H]21 [Pravastatin sodium] | inactive: 1.15 |
| COc1ccc([C@@H]2Sc3ccccc3N(CCN(C)C)C(=O)[C@@H]2OC(C)=O)cc1 [Diltiazem HCl] | inactive: 0.76 |
| O=C(O)P(=O)(O)O [Foscarnet Sodium] | inactive: 0.939 |
| CC(C(=O)O)c1ccc2c(c1)[nH]c1ccc(Cl)cc12 (centres undefined) [Carprofen] | inactive: 0.858 |
| Cc1c(Nc2ncccc2C(=O)O)cccc1C(F)(F)F [Flunixin Meglumin] | active: 0.323 |
| CC(C)(C)C(=O)C(Oc1ccc(Cl)cc1)n1ccnc1 (centres undefined) [Climbazole] | inactive: 0.545 |
| CN(C)CCCN1c2ccccc2Sc2ccc(Cl)cc21 [Chlorpromazine HCl] | active: 0.324 |
| Cc1ccsc1C(=CCCN1CCC[C@@H](C(=O)O)C1)c1sccc1C [Tiagabine hydrochloride] | inactive: 0.674 |
| Nc1ncnc2c1ncn2[C@@H]1O[C@H](COP(=O)(O)OP(=O)(O)O)[C@@H](O)[C@H]1O [Adenosine-5'-diphosphate] | inactive: 0.801 |
| CC1CNc2c(cccc2S(=O)(=O)N[C@@H](CCCNC(=N)N)C(=O)N2CC[C@@H](C)C[C@@H]2C(=O)O)C1 (some centres undefined) [Argatroban] | inactive: 1.41 |
| Nc1nc2n[nH]nc2c(=O)[nH]1 [Azaguanine-8] | active: 0.341 |
| C#Cc1cccc(Nc2ncnc3cc(OCCOC)c(OCCOC)cc23)c1 [Erlotinib] | inactive: 0.747 |
| CCCCOc1cc(C(=O)OCCN(CC)CC)ccc1N [Oxybuprocaine HCl] | inactive: 0.973 |
| Nc1[nH]cnc2ncnc1-2 [Adenine] | inactive: 1.21 |
| NC1=NCC2c3ccccc3Cc3ccccc3N12 (centres undefined) [Epinastine HCl] | inactive: 0.611 |
| C[N+]1(C)[C@@H]2C[C@@H](OC(=O)C(O)(c3cccs3)c3cccs3)C[C@H]1[C@@H]1O[C@@H]12 [Tiotropium Bromide] | inactive: 1.38 |
| O=C(O)/C=C/c1ccc(Cn2ccnc2)cc1 [Ozagrel HCl] | inactive: 0.89 |
